# Measurements published in the supplement of paper PMC11876631.
# ± gives the standard deviation of the averaged measurements. Laboratory Escherichia coli strains with one amino-acid change in an essential protein, pooled on minimal glucose agar with carbenicillin or gentamicin at twice the control MIC (plus kanamycin and chloramphenicol for the plasmids), 48 h. Fold change of barcode share against drug-free plates; higher = less susceptible. Active = above 20 in both replicates (the paper's putatively resistant). '<' = one read or none on drug, '>' = one read or none on a drug-free plate. Shares are relative, so most strains fall below 1 when a few take over. Listed are strains with at least 15 reads on both drug-free plates, and hits; most hits rest on fewer reference reads. Replicate rank correlation about 0.5. Edits are read from barcodes.
# B1: hemD V183W (protein)
# chain: MSILVTRPSPAGEELVSRLRTLGQVAWHFPLIEFSPGQQLPQLADQLAALGESDLLFALSQHAVAFAQSQLHQQDRKWPRLPDYFAIGRTTALALHTVSGQKILYPQDREISEVLLQLPELQNIAGKRALILRGNGGRELIGDTLTARGAEVTFCECYQRCAIHYDGAEEAMRWQAREVTMVWVTSGEMLQQLWSLIPQWYREHWLLHCRLLVVSERLAKLARELGWQDIKVADNADNDALLRALQ
# B2: hemD V183Q (protein)
# chain: MSILVTRPSPAGEELVSRLRTLGQVAWHFPLIEFSPGQQLPQLADQLAALGESDLLFALSQHAVAFAQSQLHQQDRKWPRLPDYFAIGRTTALALHTVSGQKILYPQDREISEVLLQLPELQNIAGKRALILRGNGGRELIGDTLTARGAEVTFCECYQRCAIHYDGAEEAMRWQAREVTMVQVTSGEMLQQLWSLIPQWYREHWLLHCRLLVVSERLAKLARELGWQDIKVADNADNDALLRALQ
# B3: hemD V183D (protein)
# chain: MSILVTRPSPAGEELVSRLRTLGQVAWHFPLIEFSPGQQLPQLADQLAALGESDLLFALSQHAVAFAQSQLHQQDRKWPRLPDYFAIGRTTALALHTVSGQKILYPQDREISEVLLQLPELQNIAGKRALILRGNGGRELIGDTLTARGAEVTFCECYQRCAIHYDGAEEAMRWQAREVTMVDVTSGEMLQQLWSLIPQWYREHWLLHCRLLVVSERLAKLARELGWQDIKVADNADNDALLRALQ
# B4: hemD V183P (protein)
# chain: MSILVTRPSPAGEELVSRLRTLGQVAWHFPLIEFSPGQQLPQLADQLAALGESDLLFALSQHAVAFAQSQLHQQDRKWPRLPDYFAIGRTTALALHTVSGQKILYPQDREISEVLLQLPELQNIAGKRALILRGNGGRELIGDTLTARGAEVTFCECYQRCAIHYDGAEEAMRWQAREVTMVPVTSGEMLQQLWSLIPQWYREHWLLHCRLLVVSERLAKLARELGWQDIKVADNADNDALLRALQ
# B5: hemD L212A (protein)
# chain: MSILVTRPSPAGEELVSRLRTLGQVAWHFPLIEFSPGQQLPQLADQLAALGESDLLFALSQHAVAFAQSQLHQQDRKWPRLPDYFAIGRTTALALHTVSGQKILYPQDREISEVLLQLPELQNIAGKRALILRGNGGRELIGDTLTARGAEVTFCECYQRCAIHYDGAEEAMRWQAREVTMVVVTSGEMLQQLWSLIPQWYREHWLLHCRLAVVSERLAKLARELGWQDIKVADNADNDALLRALQ
# B6: hemD L212D (protein)
# chain: MSILVTRPSPAGEELVSRLRTLGQVAWHFPLIEFSPGQQLPQLADQLAALGESDLLFALSQHAVAFAQSQLHQQDRKWPRLPDYFAIGRTTALALHTVSGQKILYPQDREISEVLLQLPELQNIAGKRALILRGNGGRELIGDTLTARGAEVTFCECYQRCAIHYDGAEEAMRWQAREVTMVVVTSGEMLQQLWSLIPQWYREHWLLHCRLDVVSERLAKLARELGWQDIKVADNADNDALLRALQ
# B7: hemD L212P (protein)
# chain: MSILVTRPSPAGEELVSRLRTLGQVAWHFPLIEFSPGQQLPQLADQLAALGESDLLFALSQHAVAFAQSQLHQQDRKWPRLPDYFAIGRTTALALHTVSGQKILYPQDREISEVLLQLPELQNIAGKRALILRGNGGRELIGDTLTARGAEVTFCECYQRCAIHYDGAEEAMRWQAREVTMVVVTSGEMLQQLWSLIPQWYREHWLLHCRLPVVSERLAKLARELGWQDIKVADNADNDALLRALQ
# B8: hemG L25A (protein)
# chain: MKTLILFSTRDGQTREIASYLASEAKELGIQADVANVHRIEEPQWENYDRVVIGASIRYGHYHSAFQEFVKKHATRLNSMPSAFYSVNLVARKPEKRTPQTNSYARKFLMNSQWRPDRCAVIAGALRYPRYRWYDRFMIKLIMKMSGGETDTRKEVVYTDWEQVANFAREIAHLTDKPTLK
# B9: hemG L25W (protein)
# chain: MKTLILFSTRDGQTREIASYLASEWKELGIQADVANVHRIEEPQWENYDRVVIGASIRYGHYHSAFQEFVKKHATRLNSMPSAFYSVNLVARKPEKRTPQTNSYARKFLMNSQWRPDRCAVIAGALRYPRYRWYDRFMIKLIMKMSGGETDTRKEVVYTDWEQVANFAREIAHLTDKPTLK
# Target: Escherichia coli (laboratory strain)
# Test: barcode share on antibiotic plates over drug-free plates; higher = less susceptible
# Conditions: antibiotic: carbenicillin; 2× MIC (3.1 µg/mL)
# Experimental: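 A pool of E. coli strains, each edited to carry one amino-acid change in an essential protein, was grown for 48 h on minimal glucose agar with or without antibiotic; strain barcodes were sequenced; mean of two replicates.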
row,Protein,fold change of barcode share
1,B1,0.429 ± 0.11
2,B2,1.01 ± 0.61
3,B3,0.965 ± 0.099
4,B4,1.08 ± 0.15
5,B5,0.397 ± 0.0077
6,B6,8.27 ± 4.7
7,B7,> 42.7 [active]
8,B8,2.91 ± 3.8
9,B9,0.3285 ± 0.0027

# Same assay, conditions: antibiotic: gentamicin; 2× MIC (MIC 0.45 µg/mL)
row,Protein,fold change of barcode share
1,B1,0.00806 ± 0.0027
2,B2,0.00459 ± 0.00099
3,B3,< 0.00804
4,B4,0.546 ± 0.56
5,B5,0.0519 ± 0.068
6,B6,> 43.1 [active]
7,B8,0.0113 ± 0.01
8,B9,0.0151 ± 0.0099
